Consider 14 molecules from publication PMC12136788.

Some of the results follow.

Sequences and labels used below:
T1: UNK ZnF1-6 (called full-length) (human, UniProt Q9C0B0 30-357)
T1 sequence: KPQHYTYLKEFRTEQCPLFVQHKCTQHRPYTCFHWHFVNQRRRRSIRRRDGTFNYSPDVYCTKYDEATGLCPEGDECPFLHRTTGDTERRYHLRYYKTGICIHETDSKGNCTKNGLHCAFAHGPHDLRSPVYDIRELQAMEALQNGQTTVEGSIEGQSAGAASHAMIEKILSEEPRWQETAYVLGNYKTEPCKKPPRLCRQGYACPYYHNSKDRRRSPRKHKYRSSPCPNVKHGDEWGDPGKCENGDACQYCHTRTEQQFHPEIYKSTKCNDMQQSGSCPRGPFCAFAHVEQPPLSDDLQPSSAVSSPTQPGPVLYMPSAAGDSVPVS

B1: ENSG00000181544:stop:overlap|stop_codon|ENSG00000181544|stop_codon|NA|stop_codon (ssRNA)
RNA: GGGAGUUCUACAGUCCGACGAUCAUACUUCAUGUGAGUGGAAUCAUAGAGUAUUUAUAUUUUUGUACCUGGCUUAUUUUACUUAGCAUAAUGUCCUUGAGGUUCAUUCGUGUCAUAGCUUGUGACACUAUUUCCUUCUGUUUACAACAGAGGAUUGAGCAUCA
B2: chr20:11926050:11926151:+|3pUTR|ENSG00000132640|msi1|total|mutant (ssRNA)
RNA: GGGAGUUCUACAGUCCGACGAUCAUGAAAUGGAAUGAAGGCUAAUAUGCUUGCUUUAUUUACUUUUGUAAUCUUGGAUUUUGCCGCUUUUAAAACCCGAAACCAUUGUUCUAACAAAGCAGGCAACUUUAUUCUAUAAACACACAACAGAGGAUUGAGCAUCA
B3: chr5:150657389:150657496:+|3pUTR|ENSG00000171992|unk|FALSE|bound_elsewhere (ssRNA)
RNA: GGGAGUUCUACAGUCCGACGAUCCUCUCUCUCUCUCUCACACACACACACACACACACACACACACACACACACACACACACUAGUUAGUGCCUUGGAUGAGGCGGGGCAGUGUGUAUAUGGACCCCUGGACUUGCUACCUUCCAACAGAGGAUUGAGCAUCA
B4: chr6:41099391:41099486:+|3pUTR|ENSG00000001167|msi1_unk|FALSE|overlapping (ssRNA)
RNA: GGGAGUUCUACAGUCCGACGAUCAGUGCUUAAGCUGCCAACAGUUAGAAGAUGCUAUUUAUUUGUGUCUGUAAGUUUGUACAUAGUAAUGCCAGCCUUGUUGCUGAAUUUUUUAUUUGGGGGGAGAUGACUUUGAAUUUUGUUCAACAGAGGAUUGAGCAUCA
B5: ENSG00000070961:be:win_5251|3pUTR|ENSG00000070961|bound_else_gene|NA|bound_elsewhere_windowed (ssRNA)
RNA: GGGAGUUCUACAGUCCGACGAUCUGGAUUCUUUAGCUCUCUUUUUCUUUCCUUCAUCUACCUUCUUCUCUUUUUUGCCUCUGUCUUUACCCUUUAGAAACUGGCAUGUGUUAGGGCCCAGAUUUCACCAGAUACACAAUCCUCCAACAGAGGAUUGAGCAUCA
B6: chr2:20282997:20283108:-|CDS|ENSG00000055917|unk|FALSE|unique (ssRNA)
RNA: GGGAGUUCUACAGUCCGACGAUCACUAAUCUGCAAUCUAAUUCAUUUUAUGGAAGCAGUUCUUUGACUAAUAGCUCCCAGAGUAGUUCUUUAUUUUCUCAUGGACCUGGUCAACCUGGAAGUACAUCUCUUGGCUUUGGAAGUCAACAGAGGAUUGAGCAUCA
B7: chr2:45599705:45599806:-|CDS|ENSG00000068784|msi1|total|mutant (ssRNA)
RNA: GGGAGUUCUACAGUCCGACGAUCCUCAUAUGUUCUCUUUGUGGUUUGACCGAACCGCUCUGUGGCUAUUGCUGAUACUGCUUCCGAAGACAGAAAAAAUAAAUUGGAUACUGUACAGACUCUGAAAACAGCCAAGACAAAACACAACAGAGGAUUGAGCAUCA
B8: chr4:52020705:52023956:-|three_prime_utr|ENSG00000163069|control|control|control (ssRNA)
RNA: GGGAGUUCUACAGUCCGACGAUCGUGAUAACUCAUAAUUAUUUUAAUGGCAGAGCACUGCUGUAUCUGUUUUAUGGUCUACAUAGUUAAAAUCUUCUCAGAGAGCCUAAAUUCUAAUACAUUUUAUUAAUUUAUACUAAUCUUCAACAGAGGAUUGAGCAUCA
B9: chr15:88464702:88464876:-|CDS|ENSG00000259494|control|control|control (ssRNA)
RNA: GGGAGUUCUACAGUCCGACGAUCUGAUGAAAAGAAUGACCGAACAUCCCUGAACAGGAAGCUAGACAGGAACCUUGUCCUGUUAGUCAGAGAGAAGUUUGGAGACCAGGAUGUUUGGAUACUGCCCCAGGCAGAGUGGCAGCCCAACAGAGGAUUGAGCAUCA
B10: ENSG00000198589:be:win_9101|3pUTR|ENSG00000198589|bound_else_gene|NA|bound_elsewhere_windowed (ssRNA)
RNA: GGGAGUUCUACAGUCCGACGAUCUUCAAGCAUGUUUUAGACCUAGAAAAGUAUGGUUUGGGGGAGGCUAUUUUAUUGUGUGGUUAGCACAAGGAAUCUAAUUUAUAGCAAGUGUGAAAUAGUUACCAUUUUUUCCUGAUCUGUCAACAGAGGAUUGAGCAUCA
B11: chr4:55904547:55904648:+|3pUTR|ENSG00000090989|msi1|total|mutant (ssRNA)
RNA: GGGAGUUCUACAGUCCGACGAUCAAAAUACCAAGCAACUGUUUUGAGAACCCAGACUUAAAAUUUUAUGUAUUAUUAAAUGUCCGAUAAAUGGGCCGUACCAUACUACAAAUAUUUAAAUGCAAAAUUACCAACCUAUACCGCCAACAGAGGAUUGAGCAUCA
B12: chr5:37333503:37333606:-|CDS|ENSG00000113569|unk|FALSE|unique (ssRNA)
RNA: GGGAGUUCUACAGUCCGACGAUCGAUGACAGCUGGUGUUGAUGGUCAUUCCUGGGCUCUUUCUGCGAUAGAUGAAUUGAAAGUAGAUAAAAUAAUUACACCUUUAAACAAGGAUCAUAUUCCAAUAACUGAUUCACCAGUUGUCAACAGAGGAUUGAGCAUCA
B13: chr14:100883672:100883793:-|CDS|ENSG00000254656|unk|FALSE|unique (ssRNA)
RNA: GGGAGUUCUACAGUCCGACGAUCUCUAUUCCGGGUCCCUCAGCCGGAUUCCCUAGACAGUCUGAUUGUGCUCAUCCUGCAAAUAGAAGAGAAGCUGGCAGAGAGAAGAGCUAUGCUCAGGCUGCCCCCCGAGGCCCGCCCCCGCAACAGAGGAUUGAGCAUCA
B14: chr12:74541195:74541296:+|3pUTR|ENSG00000253719|msi1|total|mutant (ssRNA)
RNA: GGGAGUUCUACAGUCCGACGAUCUGGGGGAAGGGGGGGGUUCUUUAAAAUUUCUGUGGUUUGUGGCUUUUUCUUCCAUACAUCCGUUCCCACCAUCGCAUGCCCAGGGACCACUGCCUGGCAUUAUCGCAUGCUGGGAUCAUCCAACAGAGGAUUGAGCAUCA

The target in the experiment is T1, UNK ZnF1-6 (called full-length). The experiment can be described thus: nsRBNS (natural sequence RNA bind-n-seq); RBNS binding buffer (assumed for nsRBNS): 25 mM Tris pH 7.5, 150 mM KCl, 3 mM MgCl2, 0.01% Triton X-100, 500 ug/ml BSA, 20 U/ml SUPERase-In, 4 C; UNK is unkempt and MSI1 is Musashi-1; names of the RNAs are library labels; protein concentration not given here; high values mean tight binding.
As for B1, the binding signal was 0.545 enrichment R. Then B2, with 0.466 enrichment R; and B3, with 2.02 enrichment R; and B4, with 3.8 enrichment R. Then B5, with 1.45 enrichment R; and B6, with 3.69 enrichment R; and B7, with 0.362 enrichment R. Molecule B8 displayed a binding signal of 10.6 enrichment R. B9 gave a binding signal of 0.61 enrichment R.

The molecule B10 displayed a binding signal of 2.96 enrichment R.

For the molecule B11, the binding signal worked out at 1.06 enrichment R. With B12, the binding signal was 5.84 enrichment R.

In the case of B13, the binding signal came out at 0.977 enrichment R. B14 registered a binding signal of 1.06 enrichment R.
